According to patent US8741947B2, “Biologically active macrolides, compositions, and uses thereof” (The United States of America, as represented by the …, priority 2000, dated 2014):

System: panel of 60 different human tumor cell lines
Assay: NCI 60 cell-line screen, whole panel: mean-graph and COMPARE analysis
Conditions: read-out: Mean-Panel GI50 × 10^−8M (±S.D.); Example 4; quadruplicate, upper concentration limit 10^−6 molar; S.D. in brackets

Row | Compound | GI50
1 | C/C=C/[C@H]1O[C@@](O)([C@@H](C)[C@H](O)[C@H](C)[C@H]2OC(=O)/C(OC)=C/C(C)=C/[C@@H](C)[C@@H](O)[C@@H](CC)[C@@H](O)[C@H](C)C/C(C)=C/C=C/[C@@H]2OC)C[C@@H](O[C@H]2C[C@@H](O)[C@H](OC(N)=O)[C@@H](C)O2)[C@@H]1C [Concanamycin A, concanamycin A, reference compound] | 1.1 nM
2 | CO/C1=C\C(C)=C\[C@@H](C)[C@@H](O)[C@@H](C)C/C(C)=C/C=C/[C@H](OC)[C@@H]([C@@H](C)[C@@H](O)[C@H](C)[C@@]2(O)C[C@@H](O)[C@H](C)[C@@H](C(C)C)O2)OC1=O [Bafilomycin A1, bafilomycin A1, reference compound] | 10.2 nM
3 | lobatamide A | 5.6 nM
4 | CC/C=C\C=C/C(=O)N/C=C/C[C@H]1C[C@@H](O)[C@@H](C)C/C=C/Cc2cccc(O)c2C(=O)O1 [Salicylihalamide A, salicylihalamide A, reference compound] | 49.7 nM
